Measured values: publication PMC4336329 (PLoS ONE, 2015)
The whole screen tested about 310,000 compounds, of which about 14,000 (4.5%) showed an effect of 50% or more. Effects have a minus sign here. Some of the results follow.

target: human ether-à-go-go-related gene (hERG) potassium channel (human, UniProt Q12809); assay: primary screen, population patch clamp on CHO cells stably expressing hERG
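Also: peak tail current of the secondary pulse compared with the same well before compound.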

human ether-à-go-go-related gene (hERG) potassium channel, sequence (Q12809 whole entry, looked up): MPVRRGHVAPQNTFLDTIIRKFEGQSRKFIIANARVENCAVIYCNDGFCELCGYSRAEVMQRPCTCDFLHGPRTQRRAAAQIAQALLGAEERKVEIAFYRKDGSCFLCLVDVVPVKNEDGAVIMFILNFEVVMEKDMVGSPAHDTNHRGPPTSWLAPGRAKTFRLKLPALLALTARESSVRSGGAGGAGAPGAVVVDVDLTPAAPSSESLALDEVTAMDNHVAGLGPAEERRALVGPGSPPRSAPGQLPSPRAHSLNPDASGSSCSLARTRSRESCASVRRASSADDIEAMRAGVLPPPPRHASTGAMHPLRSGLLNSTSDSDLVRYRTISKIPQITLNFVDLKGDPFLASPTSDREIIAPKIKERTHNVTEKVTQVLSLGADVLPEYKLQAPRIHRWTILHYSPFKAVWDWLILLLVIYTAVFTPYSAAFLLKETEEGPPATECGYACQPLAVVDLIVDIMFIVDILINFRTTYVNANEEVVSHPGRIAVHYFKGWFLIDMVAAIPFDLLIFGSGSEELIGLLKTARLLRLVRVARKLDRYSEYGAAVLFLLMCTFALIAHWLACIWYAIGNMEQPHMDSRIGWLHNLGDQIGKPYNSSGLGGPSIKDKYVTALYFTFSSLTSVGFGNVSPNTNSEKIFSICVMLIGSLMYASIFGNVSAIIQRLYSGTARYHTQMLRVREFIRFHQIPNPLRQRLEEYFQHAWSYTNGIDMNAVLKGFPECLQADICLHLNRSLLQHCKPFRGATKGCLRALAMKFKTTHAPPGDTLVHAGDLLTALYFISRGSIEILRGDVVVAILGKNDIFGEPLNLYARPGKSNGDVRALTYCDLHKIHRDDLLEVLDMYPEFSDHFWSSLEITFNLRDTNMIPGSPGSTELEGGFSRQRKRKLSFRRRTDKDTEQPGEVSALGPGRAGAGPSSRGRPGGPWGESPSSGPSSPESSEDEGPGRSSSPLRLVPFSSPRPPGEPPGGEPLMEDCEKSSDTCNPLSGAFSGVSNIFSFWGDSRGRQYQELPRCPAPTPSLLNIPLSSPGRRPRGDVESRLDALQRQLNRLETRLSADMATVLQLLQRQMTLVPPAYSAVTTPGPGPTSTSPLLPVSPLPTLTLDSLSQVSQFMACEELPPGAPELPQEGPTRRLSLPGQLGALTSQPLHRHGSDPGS

Row | Compound | hERG current change (%, negative = inhibition) at 10uM [%]
1 | Cc1ccc2c(c1)CCCN2C(=O)c1c(C)noc1C | -12.8
2 | Cc1sc2nc3ccc(N4CCCCC4)nn3c(=O)c2c1C | -9.12
3 | O=C(CCCN1C(=O)/C(=C/c2ccccc2Cl)SC1=S)NCCCN1CCOCC1 | -36.6
4 | C=CCn1c(=O)c(CCC(=O)Nc2ccc(N3CCOCC3)cc2)nc2cc(C(F)(F)F)ccc21 | -0.43
5 | CC12CC(c3ccccc3O1)N(C(=O)c1ccco1)C(=S)N2c1ccccc1 (stereo not drawn) | 6.08
6 | Cc1cc([N+](=O)[O-])nn1Cc1ccc(C(=O)N/N=C/c2ccc(N(C)C)cc2)cc1 | 9.61
7 | Cc1sc2ncn(CC(=O)NCCCC(=O)N3CCN(Cc4ccc5c(c4)OCO5)CC3)c(=O)c2c1C | -6.94
8 | CCC(=O)NC(C)C(c1cccs1)N1CCN(Cc2ccccc2)CC1 (stereo not drawn) | -11.6
9 | Cc1c(NC(=O)c2ccc(Br)o2)cccc1C(=O)O | 11.5
10 | COCCCNc1nc2nonc2nc1N1C[C@H]2CC[C@H]1C2 | 5.29
11 | COc1ccc(S(=O)(=O)NCCc2ccccc2)cc1OC | 4.6
12 | CC(C)OC(=O)c1cc(-c2ccc(C=O)o2)ccc1Cl | 16.3
13 | CC(OC(=O)Cc1ccsc1)C(=O)Nc1ccc(C(N)=O)cc1 (stereo not drawn) | 0.208
14 | Cc1cc(C(c2ccc(O)cc2)c2cc(C)c(O)cc2C)c(C)cc1O | 0.783
15 | COc1cc2sc3ccc(-c4ccc5[nH]ccc5c4)cc3c(=O)c2cc1OC | 11.4
16 | CN1CCN(Cc2ccc(-c3ccc(Cl)cc3)o2)CC1 | -31.7
17 | COc1ccccc1C(=O)NNC1=C(C(=O)C(F)(F)F)CCC1 | -2.03
18 | Cc1ccc(S(C)=O)cc1-n1c(=O)n(Cc2ccccc2)c(=O)c2[nH]cnc21 (stereo not drawn) | 19
19 | C=CC[C@H]1CC(C)=C[C@H](CC=C)[NH2+]1.[Cl-] | 34.7
20 | COc1ccc(C2/C=C\CN(Cc3ccc(N(C)C)cc3)CC(=O)N2Cc2ccc(F)cc2)cc1 (stereo not drawn) | -15
21 | Cc1cc(C)nc(SCC(=O)N(C)CC(=O)Nc2c(Cl)cccc2Cl)n1 | 5.43
22 | O=C(c1cc(-c2ccc(O)cc2)on1)N1CCN(c2ccccc2)CC1 | -6.55

Row | Compound | hERG current change (%, negative = inhibition) at 10uM [%]
23 | CCCC(C(=O)NCC1CCCO1)N(Cc1ccco1)C(=O)CNS(=O)(=O)c1ccccc1 (stereo not drawn) | 11.8
24 | COCCNc1nc(-c2ccccc2)nc2ccccc12.Cl | -32.5
25 | CC(=O)Nc1ccc(OC(=O)c2c(-c3ccccc3Cl)noc2C)cc1 | -15.9
26 | CC1CCCCN1CCNC(=O)c1cc2c(-c3ccccc3F)nn(C)c2s1 (stereo not drawn) | -56.1
27 | Cc1ccccc1NC(=S)NC1CCCC1 | 18.2
28 | CCOC(=O)C1CCN(S(=O)(=O)c2cc(Br)cc3c2N(C(=O)C2CC2)CC3)CC1 | 13.6
29 | COCCCN1CC(=O)N2C(c3ccc(OC)c(OC)c3)c3[nH]c4ccccc4c3C[C@H]2C1=O (stereo partly drawn) | 9.04
30 | Cc1ccc(C(=O)N2N=C3c4ccccc4S(=O)(=O)N3[C@H]2N(C)C)cc1 | -13.2
31 | CCCC(CCC)=NNC(=O)c1ccccc1F | 2.22
32 | CNS(=O)(=O)c1ccc(C(=O)NCC(=O)NCC2COc3ccccc3O2)cc1 (stereo not drawn) | 12
33 | COc1ccc(CN=C(Nc2ccccc2)SC2CC(=O)NC2=O)cc1 (stereo not drawn) | 2.39
34 | O=C(CCN1C(=O)c2ccccc2S1(=O)=O)Nc1cccc2ccccc12 | -5.33
35 | N#CCCn1cc(C(=O)Nc2ccccc2Cl)c(-c2ccc(F)cc2)n1 | 14
36 | N#CC1=C(N)OC2=C(C(=O)CC(c3ccco3)C2)C1c1ccc(OCc2c(F)cccc2Cl)cc1 (stereo not drawn) | -1.84
37 | COc1ccc(Cl)cc1NC(=O)C1COc2ccccc2O1 (stereo not drawn) | 2.73
38 | COc1cc(C)c(CNc2ccc(OC)c(OC)c2)cc1C | 7.7
39 | Cc1ccc(Sc2cnc(N)nc2C)cc1 | 9.11
40 | COc1cc2c(cc1OC)CN(C(=O)c1ccc([N+](=O)[O-])o1)CC2 | -32.9
41 | Cc1c(NC(=O)CSc2nnnn2-c2ccc(O)cc2)c(=O)n(-c2ccccc2)n1C | -7.29
42 | O=c1c2ccccc2nnn1CSc1nnc(C2COc3ccccc3O2)n1-c1ccccc1 (stereo not drawn) | -6.89
43 | COc1ccc(Cn2nc(C)cc2C)cc1OC | -1.14
44 | COc1ccc(Nc2nnc(-c3ccc(O)cc3)c3ccccc23)cc1C(N)=O | 16.4

Row | Compound | hERG current change (%, negative = inhibition) at 10uM [%]
45 | CC1CCN(c2nc(-c3ccncc3)nc3ccccc23)CC1 | -27
46 | COc1ccc(-c2sc(Nc3ccccc3)n[n+]2-c2ccc(F)cc2)c(OC)c1OC.[Cl-] | -72.2
47 | Cc1nn(Cc2ccccc2)c(C)c1NC(=O)c1ccc([N+](=O)[O-])cc1[N+](=O)[O-] | -57
48 | O=C1C(=O)N(CCCN2CCOCC2)C(c2ccc(F)cc2)/C1=C(/O)c1ccccc1 (stereo not drawn) | 23
49 | Cc1cc(S(=O)(=O)NCc2ccccc2)ccc1OCC(=O)N1CCCC1 | -3.66
50 | CCOc1ccc(-c2cc(CCCC(=O)Nc3cccc(OC)c3)no2)cc1 | 15.9
51 | NC1=NC(=Nc2cccc(S(=O)(=O)N3CCOCC3)c2)c2ccccc21 | -14.5
52 | CC(=O)c1ccc(N2CCN(C(=O)C3CCCN(S(=O)(=O)c4cnc[nH]4)C3)CC2)cc1 (stereo not drawn) | -3.5
53 | O=C1c2ccccc2C(=O)N1Nc1ccc([N+](=O)[O-])cc1[N+](=O)[O-] | 16
54 | CSc1ccc(C(=O)c2[nH]c(=O)[nH]c2C)cc1 | 6.03
55 | CC(=Nc1ccccc1)c1sc2ccccc2c1O | -10.8
56 | OCC[C@@H]1C[C@H](O)[C@@H](O)[C@@]2(Cc3ccccc3CCO2)O1 | 10.6
57 | Cc1c(C(=O)Nc2ccc(Nc3ccccc3)cc2)cccc1[N+](=O)[O-] | 13.2
58 | CN1CCN(C(=O)Cn2c(=O)oc3cc(S(=O)(=O)NCc4ccccc4)ccc32)CC1 | 5.52
59 | COc1ccccc1OCC(=O)Nc1cc(C)ccc1NC(=O)c1ccco1 | -0.0957
60 | COc1ccccc1OCC(=O)NCC(c1cccs1)N1CCOCC1 (stereo not drawn) | -4.48
61 | CCOc1ccc(S(=O)(=O)Nc2ccncc2)c(C)c1C | 8.19
62 | CCn1c(=O)[nH]c2ccccc2c1=O | 28.8
63 | CCC(CC)COC(=O)C1=C(C)NC(=O)NC1c1ccc2c(c1)OCO2 (stereo not drawn) | -6.81
64 | CCOC(=O)c1cnc2c(cnn2C)c1NCCC#N | -7.43
65 | CCOC(=O)N1CCC(N2CCCC(C(=O)c3cc(F)ccc3OC)C2)CC1 (stereo not drawn) | -86.7
66 | O=C(COC(=O)CNC(=O)c1ccc(Cl)cc1Cl)NCC1CCCO1 (stereo not drawn) | -1.81

Row | Compound | hERG current change (%, negative = inhibition) at 10uM [%]
67 | COc1ccc(OC)c(C(=O)CSc2nnnn2C)c1 | 0.419
68 | Clc1ccccc1OCc1nnc2n1CCCCC2 | -19.2
69 | O=C(NCc1ccccc1CN1CCCCC1)c1ccc(Cl)cc1N1CCCC1=O | -30.4
70 | Cc1ccc2nc(SCC(=O)Nc3ccccc3N3CCOCC3)c(C#N)cc2c1 | 0.653
71 | O=C(O)c1ccccc1C(=O)NCc1c(Cl)cccc1Sc1ccc(Cl)cc1 | 10.7
72 | CCC(OC(=O)C1=Cc2ccccc2OC1)C(=O)NCc1ccco1 (stereo not drawn) | 7.53
73 | COc1ccc(-c2oc(NC(=O)CSc3ncn[nH]3)c(C#N)c2-c2ccc(OC)cc2)cc1 | 13.7
74 | CCn1c(COc2cccc(OC)c2)nnc1SCC(=O)NCC1CCCO1 (stereo not drawn) | 9.84
75 | CNC(=O)c1[nH]cnc1C(=O)N[C@@H](Cc1ccccc1)C(=O)OC(C)(C)C | -5.69
76 | S=c1[nH]nc(C2CCCCC2)n1/N=C/C(Cl)=C\c1ccccc1 | 5.07
77 | COc1ccccc1NC(=O)CCN1CC(C)OC(C)C1.Cl (stereo not drawn) | -2.84
78 | COc1ccc2c(c1)SCC(=O)N2C | -11.1
79 | CN(C)CCn1c2c(c(SCC(=O)Nc3ccccc3)nc1=O)CCCC2 | -26.7
80 | Cc1ccc(/C=C2\C(=O)NC(=O)N(CC3CCCO3)C2=O)s1 (stereo not drawn) | 13.1
81 | O=C(NCc1ccco1)C1CCCN1C(=O)Nc1ccc(Cl)cc1 (stereo not drawn) | 9.16
82 | CCN(CC)C(=O)c1ccccc1NC(=O)CN1C(=O)c2ccccc2C1=O | 23
83 | CC(=O)c1cccc(OCC(=O)Nc2ccccc2N2CCOCC2)c1 | -24.3
84 | Cc1ccccc1C(=O)NCC(=O)NNC(=O)CCN1CCN(c2ccccc2)CC1 | 21.3
85 | COc1ccccc1N1CCN(CC(=O)Nc2ccc3c(c2)OCCO3)CC1 | -6.03
86 | CCc1cc(=O)[nH]c(SCC(=O)NCC2CCCO2)n1 (stereo not drawn) | -5.07
87 | COc1ccc(-n2nc(C(=O)NCC(=O)Nc3cc(OC)c(OC)c(OC)c3)c3ccccc3c2=O)cc1OC | 11.3
